In the supplement of paper PMC3334620:
Over roughly 33,000 sequences, “E-score (-0.5 to 0.5)” has its median near -0.043; the highest 2% begin near 0.37. The list shows a part of the results.

Each sequence was assayed against T1, Upc2 (UniProt Q12151) (assay: PBM E-score (8-mer binding enrichment) (E-score (-0.5 to 0.5)); higher = stronger / more preferred TF binding; most listed sequences are background and not binding sites). Details: protein concentration: 200 nM; construct: GST-full length.
T1 sequence: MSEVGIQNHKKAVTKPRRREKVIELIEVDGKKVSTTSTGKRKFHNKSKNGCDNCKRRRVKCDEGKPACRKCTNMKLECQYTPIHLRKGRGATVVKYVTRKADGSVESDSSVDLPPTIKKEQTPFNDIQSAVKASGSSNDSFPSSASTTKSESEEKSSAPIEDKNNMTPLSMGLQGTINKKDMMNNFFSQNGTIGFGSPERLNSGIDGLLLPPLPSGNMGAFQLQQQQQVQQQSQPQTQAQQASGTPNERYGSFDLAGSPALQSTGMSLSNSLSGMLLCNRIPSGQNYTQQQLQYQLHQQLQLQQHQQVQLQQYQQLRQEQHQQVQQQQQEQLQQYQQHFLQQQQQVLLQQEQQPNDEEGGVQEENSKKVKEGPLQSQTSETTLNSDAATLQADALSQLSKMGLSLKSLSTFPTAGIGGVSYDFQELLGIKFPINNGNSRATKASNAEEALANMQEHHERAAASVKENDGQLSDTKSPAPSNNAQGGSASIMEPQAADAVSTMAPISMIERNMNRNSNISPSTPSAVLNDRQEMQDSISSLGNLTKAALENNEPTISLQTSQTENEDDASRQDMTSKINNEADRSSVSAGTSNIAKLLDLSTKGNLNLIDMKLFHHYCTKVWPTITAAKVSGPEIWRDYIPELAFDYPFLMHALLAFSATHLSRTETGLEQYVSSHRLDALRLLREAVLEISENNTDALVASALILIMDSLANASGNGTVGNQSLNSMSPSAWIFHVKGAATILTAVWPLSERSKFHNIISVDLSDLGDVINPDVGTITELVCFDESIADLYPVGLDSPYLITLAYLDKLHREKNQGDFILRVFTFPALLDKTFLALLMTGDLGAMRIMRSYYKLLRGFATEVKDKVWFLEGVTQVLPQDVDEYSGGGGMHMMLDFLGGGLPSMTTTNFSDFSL
How it was run: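 Detection of bound protein used fluorescent anti-GST, with scans normalised by masliner. The proteins were GST-tagged yeast transcription factors applied at about 100-200 nM to universal all-10-mer Agilent arrays made double-stranded by primer extension. Each ungapped eight-base word, pooled with its reverse complement, was scored with an E-score from the Universal PBM Analysis Suite.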

Question: Which “PBM E-score” value does the source give for GACATTCA here?
Answer: -0.0852

Question: Which “PBM E-score” value does the source give for CACTTATC here?
Answer: 0.0599

Question: Which “PBM E-score” value does the source give for CTGGGCAA here?
Answer: -0.038

Question: With ACTGGTAG as the sequence, how does the “PBM E-score” value read?
Answer: -0.242

Question: Which “PBM E-score” value does the source give for CAATTTAA here?
Answer: 0.0893

Question: For ACGACTTC, which “PBM E-score” value is on record?
Answer: 0.272

Question: How did the “PBM E-score” value turn out when GGCGTACA was run?
Answer: 0.269

Question: ATATTCAC was tested. Which “PBM E-score” value did it give?
Answer: -0.0879

Question: With CCACGTCC as the sequence, how does the “PBM E-score” value read?
Answer: -0.248

Question: CGGTTCTC was tested. Which “PBM E-score” value did it give?
Answer: -0.00834

Question: How did the “PBM E-score” value turn out when CCGCTACG was run?
Answer: 0.362

Question: For GAGGCACC, which “PBM E-score” value is on record?
Answer: -0.15

Question: ACCTGTTG was tested. Which “PBM E-score” value did it give?
Answer: -0.055

Question: CAAGGGGC was tested. Which “PBM E-score” value did it give?
Answer: -0.307

Question: How did the “PBM E-score” value turn out when AAGACGCG was run?
Answer: 0.00366

Question: How did the “PBM E-score” value turn out when ACATCCGA was run?
Answer: 0.102

Question: TAATGACA was tested. Which “PBM E-score” value did it give?
Answer: 0.167

Question: ACACAATG was tested. Which “PBM E-score” value did it give?
Answer: -0.0402

Question: For AGTAACTG, which “PBM E-score” value is on record?
Answer: -0.147

Question: Which “PBM E-score” value does the source give for ACGGACAA here?
Answer: 0.0585

Question: For AGCAAACT, which “PBM E-score” value is on record?
Answer: 0.151

Question: With CGTGTTGC as the sequence, how does the “PBM E-score” value read?
Answer: -0.00376

Question: For CGATCGCG, which “PBM E-score” value is on record?
Answer: 0.199

Question: For ACTTTTTC, which “PBM E-score” value is on record?
Answer: 0.0345

Question: CAGCCTCA was tested. Which “PBM E-score” value did it give?
Answer: -0.0411

Question: How did the “PBM E-score” value turn out when AAAATAGC was run?
Answer: -0.14

Question: With GGTGTTAC as the sequence, how does the “PBM E-score” value read?
Answer: -0.204

Question: For AACACGAC, which “PBM E-score” value is on record?
Answer: 0.0603

Question: With AATCTCAA as the sequence, how does the “PBM E-score” value read?
Answer: 0.0819

Question: Which “PBM E-score” value does the source give for CCACCTCA here?
Answer: -0.156

Question: For ACTTAGCA, which “PBM E-score” value is on record?
Answer: -0.0953

Question: GAGCTTCC was tested. Which “PBM E-score” value did it give?
Answer: 0.139

Question: With CACCGCAA as the sequence, how does the “PBM E-score” value read?
Answer: 0.206

Question: Which “PBM E-score” value does the source give for GCTCCTCC here?
Answer: -0.307

Question: For AGACAAAA, which “PBM E-score” value is on record?
Answer: -0.149

Question: ATGCTGGA was tested. Which “PBM E-score” value did it give?
Answer: -0.0287

Question: Which “PBM E-score” value does the source give for GCACTCGC here?
Answer: -0.0642

Question: GCAGCGGA was tested. Which “PBM E-score” value did it give?
Answer: 0.0273

Question: AAGTGACA was tested. Which “PBM E-score” value did it give?
Answer: 0.0296

Question: With GCTAGCAC as the sequence, how does the “PBM E-score” value read?
Answer: -0.0935

Question: Which “PBM E-score” value does the source give for TACCCATA here?
Answer: -0.0492

Question: How did the “PBM E-score” value turn out when GGGTGTGA was run?
Answer: -0.258

Question: CCTCCGCA was tested. Which “PBM E-score” value did it give?
Answer: -0.198

Question: CATCCATA was tested. Which “PBM E-score” value did it give?
Answer: 0.0881

Question: CACAGGAA was tested. Which “PBM E-score” value did it give?
Answer: -0.14

Question: With ACAATCGG as the sequence, how does the “PBM E-score” value read?
Answer: -0.0781

Question: GCATTGAC was tested. Which “PBM E-score” value did it give?
Answer: -0.0811

Question: AGTAACGG was tested. Which “PBM E-score” value did it give?
Answer: 0.0726

Question: GGGATCAC was tested. Which “PBM E-score” value did it give?
Answer: -0.223

Question: Which “PBM E-score” value does the source give for CGGCCCTC here?
Answer: -0.0152

Question: With CCGATAGC as the sequence, how does the “PBM E-score” value read?
Answer: -0.115

Question: How did the “PBM E-score” value turn out when AGGAGTAT was run?
Answer: -0.214

Question: AGATAGCC was tested. Which “PBM E-score” value did it give?
Answer: -0.124

Question: Which “PBM E-score” value does the source give for CGCAGACC here?
Answer: 0.0191

Question: Which “PBM E-score” value does the source give for ATCTTCTG here?
Answer: -0.0958

Question: With CCCGACGC as the sequence, how does the “PBM E-score” value read?
Answer: -0.193

Question: With AAGAAGAC as the sequence, how does the “PBM E-score” value read?
Answer: -0.272

Question: With CAGAATTC as the sequence, how does the “PBM E-score” value read?
Answer: -0.03

Question: How did the “PBM E-score” value turn out when AACCCACA was run?
Answer: 0.0629

Question: For CCCGATCA, which “PBM E-score” value is on record?
Answer: 0.0861

Question: With CACAGTGG as the sequence, how does the “PBM E-score” value read?
Answer: -0.145

Question: GGACCGAC was tested. Which “PBM E-score” value did it give?
Answer: 0.126

Question: With AACATGGA as the sequence, how does the “PBM E-score” value read?
Answer: -0.2

Question: GGGATAGA was tested. Which “PBM E-score” value did it give?
Answer: -0.232

Question: GATGTGCC was tested. Which “PBM E-score” value did it give?
Answer: -0.178

Question: How did the “PBM E-score” value turn out when GACCTGGC was run?
Answer: -0.271

Question: Which “PBM E-score” value does the source give for CGTTTACC here?
Answer: 0.449

Question: Which “PBM E-score” value does the source give for GATCCAAC here?
Answer: 0.0134

Question: For CTTACAAC, which “PBM E-score” value is on record?
Answer: -0.00608

Question: For CTGAGCAG, which “PBM E-score” value is on record?
Answer: -0.0274

Question: How did the “PBM E-score” value turn out when AACGCCGC was run?
Answer: 0.11

Question: CCCTATAG was tested. Which “PBM E-score” value did it give?
Answer: -0.194

Question: With GTAGTAAC as the sequence, how does the “PBM E-score” value read?
Answer: 0.075

Question: For CACAAGGA, which “PBM E-score” value is on record?
Answer: -0.208

Question: How did the “PBM E-score” value turn out when ACTGGGGG was run?
Answer: -0.219

Question: How did the “PBM E-score” value turn out when AATTGCGG was run?
Answer: -0.0537

Question: With GTTCGAGA as the sequence, how does the “PBM E-score” value read?
Answer: 0.0543

Question: How did the “PBM E-score” value turn out when ATAAAGCC was run?
Answer: -0.107

Question: For AACTTCCT, which “PBM E-score” value is on record?
Answer: -0.207

Question: For CAGTAGAA, which “PBM E-score” value is on record?
Answer: -0.165

Question: How did the “PBM E-score” value turn out when CGGGTGAC was run?
Answer: -0.0722

Question: How did the “PBM E-score” value turn out when GCGACGCC was run?
Answer: 0.143

Question: With AGAATATG as the sequence, how does the “PBM E-score” value read?
Answer: -0.0459

Question: Which “PBM E-score” value does the source give for GCCGTCAC here?
Answer: -0.016

Question: With CTATTCTA as the sequence, how does the “PBM E-score” value read?
Answer: -0.107

Question: With GCGTGCGA as the sequence, how does the “PBM E-score” value read?
Answer: 0.143
